Patent US5834430A, “Potentiation of antibiotics” (BiosYnth S.r.l., priority 1995, dated 1998)
Part of at least one peptide drawing is inferred or uncertain, most often the ends. Positions of bridges follow the written chain, without caps; N, C: chain ends. Residues, ends and D or L forms follow the SMILES beside them.

Assays:
[1] = test system: E. coli SM 101; assay: Antibacterial activity of peptide used alone; type: cell-based, Escherichia coli; settings: no antibiotic
[2] = test system: S. Typhimurium SH5014; assay: Antibacterial activity of peptide used alone; type: cell-based, Salmonella typhimurium; settings: no antibiotic

Structure (SMILES) | antibacterial activity (MIC) of peptide used alone [1] [µg/mL] | antibacterial activity (MIC) of peptide used alone [2] [µg/mL]
CC(C)C[C@H](NC(=O)[C@H](Cc1ccccc1)NC(=O)[C@H](CCCNC(=N)N)NC(=O)[C@H](CCCCN)NC(=O)[C@H](CCC(N)=O)NC(=O)[C@H](C)NC(=O)[C@H](CCCCN)NC(=O)[C@H](Cc1c[nH]c2ccccc12)NC(=O)[C@@H](N)CCCCN)C(=O)O [Peptide Seq. ID 26] (H-KWKAQKRFL-OH) | > 100 | > 100
CC(C)C[C@H](NC(=O)[C@H](CCCNC(=N)N)NC(=O)[C@@H](N)CCCCN)C(=O)N[C@@H](CCCCN)C(=O)N[C@@H](Cc1c[nH]c2ccccc12)C(=O)N[C@@H](CCCCN)C(=O)N[C@@H](Cc1ccc(O)cc1)C(=O)N[C@@H](CCCCN)C(=O)NCC(=O)N[C@@H](CCCCN)C(=O)N[C@@H](Cc1ccccc1)C(=O)O [Peptide Seq. ID 28] (H-KRLKWKYKGKF-OH) | 100 | 100
CC(C)C[C@@H]1NC(=O)[C@H](Cc2ccccc2)NC(=O)[C@H](CCCCN)NC(=O)[C@@H](N)CSSC[C@@H](C(=O)O)NC(=O)[C@H](CCCCN)NC(=O)[C@H](CCCCN)NC1=O [Peptide Seq. ID 30] (H-CKFLKKC-OH; disulfide 1-7) | > 100 | > 100
CC(C)C[C@@H]1NC(=O)[C@H](Cc2ccccc2)NC(=O)[C@H](CCCCN)NC(=O)[C@@H](NC(=O)[C@H](CCCCN)NC(=O)[C@@H](NC(=O)[C@@H](N)CCCCN)[C@@H](C)O)CSSC[C@@H](C(=O)O)NC(=O)[C@H](CCCCN)NC(=O)[C@H](CCCCN)NC1=O [Peptide Seq. ID 31, Lys-Thr-Lys-Cys-Lys-Phe-Leu-Lys-Lys-Cys] (H-KTKCKFLKKC-OH; disulfide 4-10) | > 100 | > 100
CC[C@H](C)[C@H](N)C(=O)N[C@@H](CCCCN)C(=O)N[C@H](C(=O)N[C@@H](CCCCN)C(=O)N[C@H]1CSSC[C@@H](C(=O)O)NC(=O)[C@H](CCCCN)NC(=O)[C@H](CCCCN)NC(=O)[C@H](CC(C)C)NC(=O)[C@H](Cc2ccccc2)NC(=O)[C@H](CCCCN)NC1=O)[C@@H](C)O [Peptide Seq. ID 35] (H-IKTKCKFLKKC-OH; disulfide 5-11) | > 100 | > 100
NCCCC[C@H](NC(=O)[C@H](Cc1ccccc1)NC(=O)[C@H](Cc1ccccc1)NC(=O)[C@H](CCCCN)NC(=O)[C@H](Cc1ccccc1)NC(=O)[C@H](Cc1ccccc1)NC(=O)[C@@H](N)CCCCN)C(=O)N[C@@H](Cc1ccccc1)C(=O)N[C@@H](CS)C(=O)O [Peptide Seq. ID 40] (H-KFFKFFKFC-OH) | 30 | 30
CC[C@H](C)[C@H](N)C(=O)N[C@@H](CCCCN)C(=O)N[C@@H](Cc1ccccc1)C(=O)N[C@@H](CC(C)C)C(=O)N[C@@H](CCCCN)C(=O)N[C@@H](Cc1ccccc1)C(=O)N[C@@H](CC(C)C)C(=O)N[C@@H](CCCCN)C(=O)N[C@@H](Cc1ccccc1)C(=O)N[C@@H](CC(C)C)C(=O)O [Peptide Seq. ID 41] (H-IKFLKFLKFL-OH) | 10 | 30
CC(C)C[C@H](NC(=O)[C@H](Cc1ccccc1)NC(=O)[C@H](CC(C)C)NC(=O)[C@H](Cc1ccccc1)NC(=O)[C@H](CCCCN)NC(=O)[C@H](CCCCN)NC(=O)[C@H](CCCCN)NC(=O)[C@H](CCCCN)NC(=O)[C@H](CCCCN)NC(=O)[C@@H](N)CCCCN)C(=O)O [Peptide Seq. ID 42] (H-KKKKKKFLFL-OH) | 30 | 30
NCCCC[C@@H]1NC(=O)[C@H](Cc2ccccc2)NC(=O)[C@H](CCCCN)NC(=O)[C@H](Cc2ccccc2)NC(=O)[C@H](CCCCN)NC(=O)[C@H](Cc2ccccc2)NC(=O)[C@H](CCCCN)NC(=O)[C@@H](N)CSSC[C@@H](C(=O)O)NC(=O)[C@H](Cc2ccccc2)NC1=O [Peptide Seq. ID 43] (H-CKFKFKFKFC-OH; disulfide 1-10) | 30 | 100
